From PubChem BioAssay AID504832 (National Center for Advancing Translational Sciences (NCATS), 2011)
Values joined by “and” are separate entries in the source; they are usually repeats but may differ in a detail not shown here. Identical values can stand only once. In all, about 310,000 compounds went through this assay and about 18,000 (5.8%) were called active. Inconclusive means that the source gave no clear call. Such entries were picked first, then a sample of the others. Calls follow the shape of the dose curve; as a rule, active = well fitted inhibition curve with a large enough effect; inconclusive = small, poorly fitted or top-dose-only effect, or another doubt; inactive = no such curve, though single readings can be large or run the other way. A potency beside an inconclusive call is a rough fit, not a confirmed value.

assay: Primary qHTS for delayed death inhibitors of the malarial parasite plastid, 48 hour incubation; settings: P. falciparum luciferase growth in erythrocytes; series mostly up to 28.7 µM; activity change, negative = inhibition: at the top concentration
Outline: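 Firefly luciferase activity from engineered P. falciparum reports growth; inhibitors lower the luminescent signal. Cultures contained 2% hematocrit erythrocytes at 0.1% final parasitemia.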
% is scaled to controls: 0 for no effect and ±100 for the full control effect; potency is read from the fitted curve at half-maximal effect; tags tell the direction and shape of the fitted curve.

Row | Structure (SMILES) | activity change, negative = inhibition | Potency
1 | CC(C)N=C(NS(=O)(=O)c1cccs1)c1ccccc1 | inactive: -7.68% | 
2 | COc1ccc(-c2oc3ccc(-c4cc(OC)c(OC)c(OC)c4)cc3c2C(=O)c2ccc(OC)nc2)cc1 |  | inconclusive: 13.1 µM [inhibitor, single point]
3 | CCOC(=O)c1ccc(NC(=O)C2CCN(S(=O)(=O)CC)CC2)cc1 |  | inconclusive: 0.0165 µM [inhibitor, full curve, poor fit]
4 | Cc1nc2ccccn2c1C(=O)NNC(=O)Nc1cccc(C(F)(F)F)c1 | inactive: 21.6% | 
5 | COc1ccc(C2=NN(C(=O)CN3CCCCC3)C(c3ccc(OC)cc3)C2)cc1 (stereo not given) |  | inconclusive: 8.28 µM [inhibitor, partial curve]
6 | Cc1nn(C)c(C)c1-c1c(C#N)c(N)nc2c1CCCCCC2 |  | inconclusive: 0.0033 µM [inhibitor, full curve, poor fit]
7 | CNC1(C)C2CCC(C2)C1(C)C (stereo not given) | inactive: -12.1% | 
8 | O=C(COc1ccccc1)NCCSCc1ccccc1Cl | inactive: -1.68% | 
9 | COC(=O)Cc1ccc(OC(=O)CCS(=O)(=O)c2ccc(Cl)cc2)cc1 |  | inconclusive: 18.5 µM [inhibitor, single point]
10 | CNC(=S)N/N=C/c1ccc(OCC(=O)Nc2c(C)cc(C)cc2C)c(OC)c1 |  | active: 13.1 µM
11 | CC(=O)Nc1ccc(-c2csc(NC(=O)C3CC(=O)N(c4ccc5c(c4)OCCO5)C3)n2)cc1 (stereo not given) |  | inconclusive: 13.1 µM [inhibitor, partial curve]
12 | CCOC(=O)N/N=C\c1ccc(-c2cc(Cl)ccc2Cl)o1 |  | active: 5.22 µM
13 | COc1cccc2sc(N3CCN(C(=O)c4ccco4)CC3)nc12 |  | active: 9.28 µM
14 | COc1ccccc1NC(=O)N1CCc2[nH]c3ccc(Cl)cc3c2C1 |  | inconclusive: 14.7 µM [inhibitor, partial curve]
15 | CC(C)(C)CC(C)(C)NCC(O)COCCOc1ccc(Br)cc1 (stereo not given) |  | inconclusive: 13.1 µM [inhibitor, partial curve, poor fit]
16 | Cc1ccc(-n2c(O)c(C=Nc3ccc4c(c3)OCO4)c3ccccc3c2=O)cc1C |  | inconclusive: 2.94 µM [inhibitor, full curve, poor fit]
17 | CCCCc1ncc(CN2CCCC(C(=O)c3ccc(SC)cc3)C2)[nH]1 (stereo not given) |  | active: 9.28 µM
18 | O=C(O)c1cc(-c2cccnc2)nc2ccc(Br)cc12 | inactive: 17.2% | 
19 | CCCCn1c(N)c(N(CC(C)C)C(=O)c2ccc(Br)o2)c(=O)[nH]c1=O |  | inconclusive: 18.5 µM [inhibitor, single point]
20 | Cc1ccc(CN(C)c2nc(-c3cccnc3)nc3ccccc23)o1 |  | inconclusive: 11.7 µM [inhibitor, partial curve]
21 | COc1cc2[nH]c(=S)n(CCN3CCCCC3C)c(=O)c2cc1OC (stereo not given) |  | inconclusive: 11.7 µM [inhibitor, partial curve]
22 | CCOC(=O)c1ccc(NC(=O)N2CCN(C3CCCCC3)CC2)cc1 |  | inconclusive: 1.17 µM [inhibitor, partial curve]

Row | Structure (SMILES) | activity change, negative = inhibition | Potency
23 | CCc1nc(Nc2ccc3nccnc3c2)c2oc3ccccc3c2n1 |  | active: 1.04 µM
24 | COC(=O)c1sc2nc(C)nc(SCC(=O)Nc3sccc3C(N)=O)c2c1C |  | inconclusive: 11.7 µM [inhibitor, single point]
25 | Cc1nc2ccccc2n1CCOc1ccc([N+](=O)[O-])cc1 |  | inconclusive: 13.1 µM [inhibitor, partial curve, poor fit]
26 | CN(NC(=O)/C=C/C(=O)O)c1ncc(C(F)(F)F)cc1Cl |  | inconclusive: 18.5 µM [inhibitor, single point]
27 | COc1ccccc1N1CCN(C(=O)CSc2nc3ccccc3nc2N2CCC(C)CC2)CC1 |  | inconclusive: 9.28 µM [inhibitor, partial curve]
28 | CCOC(=O)c1[nH]c2ccc(C)cc2c1NC(=O)CN1CCCCC1 |  | inconclusive: 11.7 µM [inhibitor, partial curve, poor fit]
29 | Cn1c(NCc2cc(Br)ccc2O)nc2ccccc21 |  | inconclusive: 2.33 µM [inhibitor, full curve, poor fit]
30 | COc1cc2c(cc1OC)C(COc1cccc(C(F)(F)F)c1)NCC2 (stereo not given) |  | inconclusive: 0.165 µM [inhibitor, full curve, poor fit]
31 | Cc1nc(N2CCCCC2)c2c(C)c(C(=O)Nc3ccccc3C(F)(F)F)sc2n1 |  | active: 9.28 µM
32 | S=c1nc[nH]c2nc[nH]c12 |  | inconclusive: 4.15 µM [inhibitor, full curve, poor fit] and inconclusive: 13.1 µM [inhibitor, partial curve, poor fit]
33 | CN1CCSc2ccc(C(=O)Nc3cccc(F)c3)cc21 | inactive: 126% | 
34 | CCOC(CNc1cc(C)nc2c(-c3ccccc3OC)c(C)nn12)OCC | inactive: 2.56% [at 0.00184 µM] | 
35 | O=C(N/N=C/c1ccc([N+](=O)[O-])o1)c1ccc2c(c1)OCO2 |  | inconclusive: 0.262 µM [inhibitor, partial curve, poor fit]
36 | Cc1cc(C)c(S(=O)(=O)c2ccccc2F)c(=O)[nH]1 |  | inconclusive: 0.0294 µM [inhibitor, full curve, poor fit]
37 | CCCN1CCC(=O)N(CCO)CC1 | inactive: -11.5% | 
38 | O=C(Nc1ccc2c(c1)OCCO2)c1ccc(S(=O)(=O)N2CCCCC2)cc1 |  | inconclusive: 10.4 µM [inhibitor, partial curve, poor fit]
39 | Cn1c(N)c(C(=O)N/N=C/c2ccccc2)sc1=S | inactive: -3.69% | 
40 | Cc1ccc(C2=N/C(=C/c3cccs3)C(=O)N2Nc2ccccc2)cc1 |  | inconclusive: 18.5 µM [inhibitor, single point]
41 | Cc1cc(NC(=O)CCC(=O)N(c2ccccc2)C(C)C(=O)NC2CCCC2)no1 (stereo not given) | inactive: 11.4% | 
42 | Cc1cccc(/C=N/NC(=O)c2cc(Br)ccc2OCc2ccccc2)n1 |  | inconclusive: 10.4 µM [inhibitor, single point]
43 | Cc1ccc(-c2nnc(SCc3nc4ccccc4[nH]3)n2Cc2ccco2)cc1 |  | inconclusive: 0.0033 µM [inhibitor, full curve, poor fit]
44 | COc1cc(C(=O)N/N=C(\C)Cn2nc([N+](=O)[O-])cc2C)ccc1O | inactive: 34.7% | 

Row | Structure (SMILES) | activity change, negative = inhibition | Potency
45 | Cc1ccccc1CN1CCCC(C(=O)Nc2ccc(-c3ccn[nH]3)cc2)C1 (stereo not given) |  | inconclusive: 9.28 µM [inhibitor, partial curve]
46 | CC1=NN(C(N)=S)C(=O)C1N=Nc1ccc(Cl)cc1Cl (stereo not given) |  | inconclusive: 4.65 µM [inhibitor, full curve, poor fit]
47 | CC(C)c1ccc(NC2CCCN(C(=O)C3=NN(C)C(=O)CC3)C2)cc1 (stereo not given) |  | inconclusive: 10.4 µM [inhibitor, partial curve, poor fit]
48 | COc1ccc(OCC(=O)Nc2ccc(S(=O)(=O)N3CCOCC3)cc2)cc1 | inactive: -14% | 
49 | c1ccc(-n2nnnc2NCCc2c[nH]c3ccccc23)cc1 |  | inconclusive: 13.1 µM [inhibitor, single point]
50 | CC(C(=O)Nc1ccc(Cl)cc1Cl)N1C(=O)NC2(CCCCCCC2)C1=O (stereo not given) |  | inconclusive: 18.5 µM [inhibitor, single point]
51 | CCC1=Nc2cc(C(=O)NCCCN3CCOCC3)ccc2Sc2ccc(Br)cc21 |  | inconclusive: 6.57 µM [inhibitor, partial curve]
52 | CCN(CC)CCNc1c2c(c(C#N)c3nc4ccccc4n13)CCCC2 |  | active: 10.4 µM
53 | CCC(C)(C)NC(=O)C(c1cccn1C)N(C(=O)Cn1nnc2ccccc21)c1ccc(F)cc1 (stereo not given) |  | inconclusive: 3.7 µM [inhibitor, partial curve, poor fit]
54 | COc1ccc(CCN2CC(C(=O)NCCN3CCCC3=O)CCC2=O)cc1 (stereo not given) |  | inconclusive: 13.1 µM [inhibitor, partial curve, poor fit]
55 | O=C(CCN1CCN(c2ccc(Cl)cc2)CC1)Nc1nccs1 |  | inconclusive: 11.7 µM [inhibitor, single point]
56 | CCN1CCc2c(sc(NC(=O)c3ccc(S(=O)(=O)N4CCOCC4)cc3)c2C(N)=O)C1 |  | inconclusive: 11.7 µM [inhibitor, partial curve, poor fit]
57 | COc1cc(F)ccc1S(=O)(=O)n1c(C)nc2ccccc21 |  | inconclusive: 11.7 µM [inhibitor, partial curve, poor fit]
58 | Cc1nc2ccc(S(=O)(=O)NCC(=O)N3CCN(c4ccccc4)CC3)cc2s1 |  | inconclusive: 16.5 µM [inhibitor, partial curve, poor fit]
59 | Cc1cc(NC(=O)CCC(=O)N(c2ccccc2)C(C(=O)NC2CCCC2)c2ccccc2)no1 (stereo not given) |  | active: 14.7 µM
60 | COc1ccc(C2=NN(C(=O)CN3CCCCC3)C(c3ccc(C)cc3)C2)cc1 (stereo not given) |  | inconclusive: 18.5 µM [inhibitor, single point]
61 | CN(CCCN1CCOCC1)C(=O)c1ccc2nc(Cc3cccc(Cl)c3)oc2c1 |  | inconclusive: 11.7 µM [inhibitor, partial curve, poor fit]
62 | NC(=O)C1CCN(c2nc(-c3ccc4occc(=O)c4c3)cs2)CC1 |  | inconclusive: 16.5 µM [inhibitor, single point]
63 | COc1ccc(NCc2nnc(SCC(=O)N3CCCc4ccccc43)n2C)cc1 |  | inconclusive: 6.57 µM [inhibitor, partial curve, poor fit]
64 | N#Cc1ccccc1Cn1cc(C#N)c2ccccc21 |  | inconclusive: 14.7 µM [inhibitor, single point]
65 | Cc1cc(CN2CCCC(N3CCc4ccccc4C3)C2)cc(C)c1O (stereo not given) |  | inconclusive: 14.7 µM [inhibitor, partial curve, poor fit]
